Among the data in patent US20230265134A1 are % HC2-LC1 product and % HC2-LC2 product values, retold here.

Assay [1] has as its target Panitumumab kappa light chain (wild-type) (human). The assay is described as follows: LCMS of Fabs cleaved from IgG; 2 HC + 2 LC co-expressed in HEK293.
In assay [2] the target is Ustekinumab lambda fusion light chain (human). The assay is described as above.
Setting [3] is: with Pani K147F S183K heavy chain.
[4] abbreviates: with Pani K147F S183R heavy chain.
Where [5] appears, read: with Pani K147F S183Y heavy chain.
[6] abbreviates: with Pani wild-type heavy chain.

Some values that stand alone complete this part of the results.

On to “Ustekinumab heavy chain, CH1 A141D (from UniProt P01857 1-101)”, for which the % HC2-LC1 product in assay [1] (setting [3]) is 10.5%; in assay [1] (setting [4]), 6.8%; in assay [1] (setting [5]), 11%; in assay [1] (with Pani S183R heavy chain), 12.9%; in assay [1] (setting [6]) it was 9.9%. The % HC2-LC2 product in assay [2] (setting [3]) was determined as 39.8%; in assay [2] (setting [4]), 43.1%; in assay [2] (setting [5]), 42.8%; in assay [2] (with Pani S183K heavy chain), 41.6%; in assay [2] (with Pani S183R heavy chain), 34%; in assay [2] (with Pani S183Y heavy chain), 41.5%. For the same substance, the % HC2-LC2 product in assay [2] (setting [6]) was determined as 39%.
